Test results: PubChem BioAssay AID1768 (National Center for Advancing Translational Sciences (NCATS), 2009)
Screen size: about 270,000 compounds; about 620 (0.23%) were called active. The shares of active, inactive and inconclusive entries below differ from those in the screen. Calls follow the shape of the dose curve; as a rule, active = well fitted inhibition curve with a large enough effect in the polarisation, with a control signal flat (not every such curve was filed as active); inconclusive = small, poorly fitted or top-dose-only effect, or effect the other way, or a change in a side signal; inactive = no such curve, though single readings can be large or run the other way; the % refers to the polarisation. Potencies of inconclusive entries are doubtful fits and often do not repeat. A note “side channel” means that the fit belongs to a control or component signal, not to the main read-out.

Molecular target: Menin (Homo sapiens) (UniProt O00255)
UniProt O00255, sequence (O00255 whole entry, looked up): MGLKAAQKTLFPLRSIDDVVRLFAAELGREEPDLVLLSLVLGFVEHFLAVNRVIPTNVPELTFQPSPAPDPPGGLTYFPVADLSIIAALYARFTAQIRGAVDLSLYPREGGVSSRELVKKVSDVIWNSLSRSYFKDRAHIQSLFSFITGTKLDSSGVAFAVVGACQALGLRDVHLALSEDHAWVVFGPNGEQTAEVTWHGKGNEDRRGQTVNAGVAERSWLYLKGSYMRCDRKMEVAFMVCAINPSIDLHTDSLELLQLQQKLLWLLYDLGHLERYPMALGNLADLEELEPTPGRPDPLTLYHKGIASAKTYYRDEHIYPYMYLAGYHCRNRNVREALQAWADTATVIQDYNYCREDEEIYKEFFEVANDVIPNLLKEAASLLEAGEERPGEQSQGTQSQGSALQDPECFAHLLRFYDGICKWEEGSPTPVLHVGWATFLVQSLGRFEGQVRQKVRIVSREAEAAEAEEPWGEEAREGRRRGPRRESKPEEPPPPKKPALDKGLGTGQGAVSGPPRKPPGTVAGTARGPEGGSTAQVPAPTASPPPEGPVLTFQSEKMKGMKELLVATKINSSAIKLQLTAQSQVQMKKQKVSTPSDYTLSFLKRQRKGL
Test: qHTS Assay for Inhibitors Targeting the Menin-MLL Interaction in MLL Related Leukemias: Competition With Texas Red Labeled MLL-derived Mutant Peptide
Conditions: fluorescence polarization; series mostly up to 61.6 µM
Potency is read from the fitted curve at half-maximal effect; tags tell the direction and shape of the fitted curve or compound fluorescence and quenching.

SMILES | Potency
CC(C)Oc1ccc(C(=O)Nc2ccc(NC(=O)c3ccco3)c(Cl)c2)cc1 | inconclusive: 11.2 µM [quencher, side channel, partial curve]
O=c1cc2ncc(-n3cc([N+](=O)[O-])cn3)cn2[nH]1 | inconclusive: 28.2 µM [quencher, side channel, partial curve]
Cc1ccccc1-c1nc(C#N)c(N2CCCCC2)o1 | inconclusive: 25.1 µM [fluorescent, side channel, single point]
CCOC(=O)N1CCN(c2nc(-c3cccs3)nc3ccccc23)CC1 | inconclusive: 0.631 µM [inhibitor, full curve, poor fit]
O=C(Nc1ccccc1)c1cccc(S(=O)(=O)Oc2ccc([N+](=O)[O-])cc2)c1 | inconclusive: 14.1 µM [quencher, side channel, partial curve]
Cc1nc2ccc(NC(=O)c3cccs3)cc2c(=O)n1Cc1ccc(Cl)cc1 | inconclusive: 12.6 µM [quencher, side channel, partial curve]
CCOc1ccc(S(=O)(=O)N2CCN(C(=S)NCc3ccco3)CC2)cc1 | inactive
CN(C)CCN(CC1CCCN(Cc2ccccc2F)C1)C(=O)c1ccc(Cl)cc1 (stereo unspecified) | inconclusive: 25.1 µM [fluorescent, side channel, partial curve]
Cc1ccc(Nc2nc3ccccc3s2)cc1 | inconclusive: 28.2 µM [quencher, side channel, single point]
O=c1ccc(NS(=O)(=O)c2ccccc2)cn1Cc1ccc(Cl)c(Cl)c1 | inconclusive: 3.98 µM [quencher, side channel, full curve]
COc1ccc(Cl)cc1-n1c(=S)sc2c(=O)[nH]c(SCC(=O)NCC3CCCO3)nc21 (stereo unspecified) | inconclusive: 20 µM [quencher, side channel, partial curve]
CC1(C)CC(=O)C/C(=N/Nc2nc3ccccc3s2)C1 | inconclusive: 10 µM [quencher, side channel, partial curve]
O=C(Cc1ccccc1F)Nc1nc(-c2cccs2)cs1 | inconclusive: 35.5 µM [quencher, side channel, single point]
O=C(COC(=O)Cc1ccccc1F)Nc1ccc(SC(F)F)cc1 | inconclusive: 15.8 µM [quencher, side channel, partial curve]
COc1ccc(Cl)cc1NC(=O)Nc1cccc([N+](=O)[O-])c1C | inconclusive: 11.2 µM [quencher, side channel, partial curve]
NNc1nc(-c2ccccc2)cs1 | inconclusive: 20 µM [quencher, side channel, partial curve]
CCc1sc(C(C2C(=O)CC(C)(C)CC2=O)C2C(=O)CC(C)(C)CC2=O)cc1[N+](=O)[O-] | inactive
COc1cc(NC(=O)c2noc3c2CCC3)c(OC)cc1Cl | inconclusive: 10 µM [quencher, side channel, partial curve]
O=[N+]([O-])c1ccc(CCNc2cccc3ccccc23)c([N+](=O)[O-])c1 | inconclusive: 3.55 µM [quencher, side channel, full curve]

SMILES | Potency
Cc1ccc(CNC(=O)c2cc3c(s2)CN(Cc2ccccc2)C3)cc1 | inconclusive: 35.5 µM [fluorescent, side channel, single point]
COc1ccc(NC(=O)c2cnc(C)cn2)cc1-n1cnnn1 | inconclusive: 2.24 µM [inhibitor, partial curve]
O=[N+]([O-])c1ccc(/C=N/Nc2ccc3ccccc3c2)o1 | inconclusive: 8.91 µM [quencher, side channel, full curve]
Cc1nc(COC(=O)c2cc(O)c3ccccc3c2O)cs1 | inconclusive: 35.5 µM [quencher, side channel, single point]
Cc1ccc(NC(=O)Cn2c(CCC(=O)O)ccc2-c2cccs2)cc1Cl | inconclusive: 20 µM [quencher, side channel, partial curve]
CC1=NOC(=O)/C1=C\c1ccc(-c2ccc(Cl)cc2Cl)o1 | inconclusive: 12.6 µM [quencher, side channel, partial curve]
CC(=O)N1CC=C2C(C#N)=C(N)C(C#N)(C#N)C(CCc3ccccc3)C2C1 (stereo unspecified) | inactive
Cc1nc(NC2=NCN(CCCN3CCOCC3)CN2)nc2c(C)cccc12 | inactive
N#Cc1ccccc1NC(=O)CN(Cc1ccccc1)Cc1ccccc1 | inconclusive: 14.1 µM [fluorescent, side channel, partial curve]
C=C1CCC[C@]2(C)C[C@H]3OC(=O)C(CNC(C)CC)[C@H]3CC12 (stereo partly specified) | inconclusive: 22.4 µM [fluorescent, side channel, partial curve]
Cc1cc2cc(CNC(=O)c3cc4ccccc4o3)ccc2n1C | inconclusive: 14.1 µM [fluorescent, side channel, partial curve]
O=C(O)c1ccc(N/N=C/C=C/c2ccccc2[N+](=O)[O-])cc1 | inconclusive: 11.2 µM [quencher, side channel, partial curve]
O=C(CC(NS(=O)(=O)c1ccc(Cl)cc1)c1ccco1)NCc1ccco1 (stereo unspecified) | inactive
C=CCc1ccc(OCC(O)COc2ccc(CC=C)cc2OC)c(OC)c1 | inconclusive: 3.98 µM [fluorescent, side channel, partial curve]
Cc1ccc(NC(=S)NCCC(c2ccccc2)c2ccccc2)c(C)c1 | inactive
O=C(O)c1ccc(Sc2nnnn2-c2ccccc2)c([N+](=O)[O-])c1 | inconclusive: 25.1 µM [quencher, side channel, partial curve]
Cc1c(C(=O)Nc2ccc3oc(-c4cccnc4)nc3c2)oc2ccccc12 | inconclusive: 10 µM [inhibitor, partial curve, poor fit]
COc1ccc(/C=C/c2c(-c3ccc(OC)cc3)oc3cccnc23)cc1 | inconclusive: 14.1 µM [quencher, side channel, partial curve]
O=C(Nc1cc(S(=O)(=O)N2CCOCC2)ccc1O)c1ccc2c(c1)S(=O)(=O)c1ccccc1C2=O | inconclusive: 25.1 µM [quencher, side channel, partial curve]

SMILES | Potency
O=C(Nc1cccc(NC(=O)c2cncc(Br)c2)c1)c1cncc(Br)c1 | inconclusive: 39.8 µM [inhibitor, single point]
CC(C)Cn1c(=O)c(C(=O)Nc2ccccc2S(N)(=O)=O)c(O)c2ccccc21 | inconclusive: 39.8 µM [inhibitor, single point]
Cc1cc(C)c(C(N)=O)c(Nc2cccc3ccccc23)n1 | inconclusive: 28.2 µM [quencher, side channel, single point]
C=C(C)COc1ccc(-c2nc(N)ncc2Oc2ccc(OC)cc2)c(O)c1 | inconclusive: 15.8 µM [quencher, side channel, partial curve]
COc1ccc(N2C(=O)C(CC(=O)Nc3ccc(F)cc3)N(CCc3cccs3)C2=O)cc1 (stereo unspecified) | inconclusive: 31.6 µM [quencher, side channel, single point]
O=C(NNc1cc(N2CCCC2)nc(N2CCCC2)n1)c1ccc([N+](=O)[O-])cc1 | inconclusive: 8.91 µM [inhibitor, full curve, poor fit]
O=C(Nc1nnc(-c2cccs2)o1)c1cc(-c2ccccc2)nc2ccccc12 | inconclusive: 15.8 µM [quencher, side channel, partial curve]
COc1ccccc1NC(=O)C(C)Sc1nnnn1C (stereo unspecified) | inconclusive: 28.2 µM [quencher, side channel, single point]
CCOc1ccc(-n2nnc3c(=O)n(CC(=O)c4ccccc4)cnc32)cc1 | inconclusive: 39.8 µM [inhibitor, single point]
O=c1c(-c2cc(F)cc(F)c2)nc2cnc(Nc3ccccc3)nc2n1C[C@H]1CCCO1 | inconclusive: 39.8 µM [inhibitor, single point]
COC(=O)c1c(NC(NC(=O)CC(C)C)C(Cl)(Cl)Cl)sc2c1CCC2 (stereo unspecified) | inconclusive: 10 µM [inhibitor, partial curve]
CCOc1ccc(S(=O)(=O)Nc2ccccc2C(=O)N/N=C/c2c(OC)ccc3ccccc23)cc1 | inconclusive: 35.5 µM [inhibitor, single point]
O=C(CCCN1C(=O)c2cccc3cccc(c23)C1=O)NCc1cccs1 | inconclusive: 39.8 µM [fluorescent, side channel, single point]
O=C(CNC(=O)c1ccc(Br)cc1)c1ccccc1 | inconclusive: 20 µM [inhibitor, partial curve]
Clc1ccc(/C=C/c2nc3ccccc3[nH]2)c(Cl)c1 | inconclusive: 39.8 µM [inhibitor, single point]
CC1=C(C(=O)Nc2cccc([N+](=O)[O-])c2)C2(CCC(C)CC2)OC1=O (stereo unspecified) | inconclusive: 10 µM [quencher, side channel, partial curve]
COc1cc(/C=C2/SC(=S)N(CC3CCCO3)C2=O)ccc1O (stereo unspecified) | inconclusive: 12.6 µM [fluorescent, side channel, partial curve]
O=C(O)c1ccc(CSc2nc(-c3ccc(Cl)cc3)cc(C(F)(F)F)n2)cc1 | inconclusive: 10 µM [quencher, side channel, partial curve, poor fit]
